# According to publication PMC10435766:
# Sequences of proteins named here, by UniProt entry; tags and fusion partners are left off. Residues count along the entry.
# UniProt Q7Z434: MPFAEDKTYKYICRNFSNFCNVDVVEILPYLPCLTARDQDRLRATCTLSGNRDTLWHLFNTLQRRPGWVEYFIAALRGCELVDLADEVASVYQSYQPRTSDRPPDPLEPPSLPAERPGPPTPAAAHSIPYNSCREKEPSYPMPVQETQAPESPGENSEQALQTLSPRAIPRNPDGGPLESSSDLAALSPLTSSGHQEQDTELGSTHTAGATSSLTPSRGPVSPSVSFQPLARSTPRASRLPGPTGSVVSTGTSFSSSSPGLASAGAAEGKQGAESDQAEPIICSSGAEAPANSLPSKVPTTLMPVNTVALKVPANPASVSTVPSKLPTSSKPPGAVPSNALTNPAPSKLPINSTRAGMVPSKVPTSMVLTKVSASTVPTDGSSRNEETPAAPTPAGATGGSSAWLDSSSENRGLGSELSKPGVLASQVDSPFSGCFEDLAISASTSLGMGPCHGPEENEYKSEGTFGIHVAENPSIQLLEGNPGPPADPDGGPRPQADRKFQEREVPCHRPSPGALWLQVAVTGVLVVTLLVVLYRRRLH
# UniProt P01042, residues 19-644: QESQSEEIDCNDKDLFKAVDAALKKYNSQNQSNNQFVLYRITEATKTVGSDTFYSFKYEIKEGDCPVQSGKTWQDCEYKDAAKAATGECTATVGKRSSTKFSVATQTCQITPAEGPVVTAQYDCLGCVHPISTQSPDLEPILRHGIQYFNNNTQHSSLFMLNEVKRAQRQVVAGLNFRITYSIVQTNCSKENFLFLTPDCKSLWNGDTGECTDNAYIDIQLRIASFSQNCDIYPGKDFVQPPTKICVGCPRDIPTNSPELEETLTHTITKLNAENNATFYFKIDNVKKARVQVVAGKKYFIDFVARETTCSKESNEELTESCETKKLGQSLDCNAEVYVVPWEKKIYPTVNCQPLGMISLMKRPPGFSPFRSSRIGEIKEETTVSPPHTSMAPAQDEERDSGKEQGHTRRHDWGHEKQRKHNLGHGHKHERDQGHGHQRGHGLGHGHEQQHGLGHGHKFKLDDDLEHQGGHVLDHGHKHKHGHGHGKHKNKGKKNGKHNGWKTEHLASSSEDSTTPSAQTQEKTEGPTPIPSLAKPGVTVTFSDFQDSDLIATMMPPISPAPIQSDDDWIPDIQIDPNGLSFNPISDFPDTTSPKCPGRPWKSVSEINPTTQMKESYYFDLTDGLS
# These are yes or no findings as the source states them, for the method shown. In cells and extracts the contact can be indirect. Some binding calls cover weakened binding; strength is not graded here.
# Key:
# MAVS-His = MAVS-His (UniProt Q7Z434); assay: co-IP; vector or KNG1-Flag co-transfected into HepG2 cells with pHBV and MAVS-His or HSP90A-His (also HepG2.2.15; Huh7 with HSP90A-His); lysates incubated with anti-His antibody and Protein A + G agarose
# [1] = biological target: MAVS (endogenous) (human (endogenous in HepG2, HepG2.2.15, Huh7)) (UniProt Q7Z434); assay: condition: only cells treated with 0.5 μM 17-AAG for 24 h; co-IP; immunoprecipitation of endogenous MAVS from HepG2 cells (also HepG2.2.15 and Huh7) treated with 0.5 μM 17-AAG for 24 h; blot for HSP90A
# [2] = biological target: MAVS (endogenous) (human (endogenous in HepG2, HepG2.2.15, Huh7)) (UniProt Q7Z434); assay: co-IP; immunoprecipitation of endogenous MAVS from untreated HepG2 cells (also HepG2.2.15 and Huh7); blot for HSP90A
# [3] = biological target: MAVS (endogenous) (human (endogenous in HepG2, HepG2.2.15, Huh7)) (UniProt Q7Z434); assay: co-IP; vector or KNG1-Flag co-transfected into Huh7 cells with pHBV; lysates incubated with anti-MAVS antibody and Protein A + G agarose
# [4] = biological target: HSP90A-His (PCAGGS-HSP90A-His) (UniProt P07900); assay: co-IP; HepG2.2.15 cells co-transfected with HSP90A-His along with KNG1-Flag or MAVS-Flag; immunoprecipitated and immunoblotted with indicated antibodies
# [5] = biological target: HSP90A-His (PCAGGS-HSP90A-His) (UniProt P07900); assay: co-IP; vector or KNG1-Flag co-transfected into HepG2 cells with pHBV and MAVS-His or HSP90A-His (also HepG2.2.15; Huh7 with HSP90A-His); lysates incubated with anti-His antibody and Protein A + G agarose
# [6] = biological target: KNG1-Flag (pcDNA3.1-KNG1-3 × Flag) (human) (UniProt P01042); assay: co-IP; HepG2.2.15 cells transfected with KNG1-Flag for 48 h; lysates incubated with anti-Flag agarose; immunoblot
substance,measurement,setting,value
HSP90A (endogenous) (from UniProt P07900 1-732),binding,MAVS-His,binds
same,binding,[1],no binding
same,binding,[2],binds
same,binding,[3],binds
KNG1-Flag (pcDNA3.1-KNG1-3 × Flag) (from UniProt P01042 19-644),binding,[4],binds
MAVS (endogenous) (from UniProt Q7Z434 1-540),binding,[5],binds
same,binding,[6],binds
MAVS-Flag (pcDNA3.1-MAVS-Flag) (from UniProt Q7Z434 1-540),binding,[4],binds
